From PubChem BioAssay AID485294 (National Center for Advancing Translational Sciences (NCATS), 2010)
Values joined by “and” are separate entries in the source; they are usually repeats but may differ in a detail not shown here. Equal values may be shown once. Out of some 370,000 compounds screened, about 150 (0.041%) were called active. The shares of active, inactive and inconclusive entries below differ from those in the screen. Calls follow the shape of the dose curve; as a rule, active = well fitted inhibition curve with a large enough effect; inconclusive = small, poorly fitted or top-dose-only effect; inactive = flat fitted curve, though single readings scatter. A potency beside an inconclusive call is a rough fit, not a confirmed value.

Biological target: Beta-lactamase (Escherichia coli (strain K12)) (UniProt P00811)
Assay: qHTS Inhibitors of AmpC Beta-Lactamase (assay with detergent); also: nearly all actives have a fitted effect of over 25% in size
Conditions: AmpC hydrolysis of nitrocefin, absorbance 480 nm, 0.01% Triton; series mostly up to 114 µM
Method in brief: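 AmpC (5.3 nM in the dispensed reagent) in 20 mM phosphate pH 7.0 with 0.01% (detergent screen) or 0.0001% Triton X-100 was preincubated with compounds for 15 min at room temperature. Nitrocefin was then added from an 800 uM solution, and hydrolysis was followed at 480 nm.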
Potency is read from the fitted curve at half-maximal effect; tags tell the direction and shape of the fitted curve.

Chain of UniProt P00811 (P00811 whole entry, looked up): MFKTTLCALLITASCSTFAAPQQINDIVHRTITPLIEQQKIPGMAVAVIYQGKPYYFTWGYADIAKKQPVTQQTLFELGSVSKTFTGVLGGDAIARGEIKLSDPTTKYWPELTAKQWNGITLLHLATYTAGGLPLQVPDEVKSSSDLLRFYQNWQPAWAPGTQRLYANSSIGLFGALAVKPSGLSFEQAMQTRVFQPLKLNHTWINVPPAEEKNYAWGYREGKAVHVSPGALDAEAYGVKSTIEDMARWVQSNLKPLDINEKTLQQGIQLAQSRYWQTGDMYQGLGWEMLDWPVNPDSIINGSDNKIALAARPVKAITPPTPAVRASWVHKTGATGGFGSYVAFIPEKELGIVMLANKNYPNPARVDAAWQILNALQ

Compound | Potency
C=CCNC(=O)c1ccccc1NC(=O)c1ccccc1 | inconclusive: 4.47 µM [inhibitor, full curve]
N#CCCN(Cc1cccnc1)C(=O)Nc1ccccc1 | inconclusive: 2.51 µM [inhibitor, partial curve]
CCSc1nnc(NC(=O)C2CCCN(S(=O)(=O)c3cnc[nH]3)C2)s1 (stereo not drawn) | inactive
CCCn1c(SCCN2C(=O)c3ccccc3C2=O)n[nH]c1=O | inconclusive: 100 µM [inhibitor, partial curve, poor fit]
CCOC(=O)C1CCCN(CC(=O)NC2CC2)C1 (stereo not drawn) | inconclusive: 100 µM [inhibitor, partial curve, poor fit]
COc1ccc(NC(=O)Cn2c(=O)n(Cc3ccco3)c(=O)c3sc4ccccc4c32)c(OC)c1 | inactive
Cc1cc(C)c(NC(=O)Nc2ccccc2)c(Cl)c1 | inconclusive: 10 µM [inhibitor, partial curve]
O=C(Nc1ccccc1-c1nnn(CC(=O)N2CCCc3ccccc32)n1)c1ccco1 | inconclusive: 2.82 µM [inhibitor, full curve, poor fit]
Cc1ccc(C(=O)N2CCN(c3ccccn3)CC2)cc1C | inactive
Cn1cc(/C=N/NC(=O)c2ccc(C#N)cc2F)c2ccccc21 | inconclusive: 89.1 µM [inhibitor, single point]
COc1cc(-c2nnc3sc(C4CCCCC4)nn23)cc(OC)c1OC | inconclusive: 50.1 µM [inhibitor, partial curve]
Cc1nn(-c2ccccc2)c(-n2cccc2)c1C(=O)N1CCN(c2ccccc2)CC1 | inactive
COc1ccc(C(=O)N/N=C\c2ccoc2)cc1 | inactive
COc1ccc(-c2csc(N3CCN(c4cc5c(cc4Cl)nc(-c4ccncc4)n5CCOCCO)CC3)n2)cc1 | inconclusive: 100 µM [inhibitor, partial curve, poor fit]
COC(=O)c1c(NC(=O)C(C)(C)C)sc2c1CCN(Cc1ccccc1)C2 | inconclusive: 100 µM [inhibitor, partial curve, poor fit]
Cc1ccc(-c2cc(C(=O)Nc3cccnc3)[nH]n2)c(O)c1C | inactive
Cc1c(C)n(CC(O)CN2CCCCCC2)c2ccccc12 (stereo not drawn) | inconclusive: 0.631 µM [inhibitor, full curve, poor fit]
CN1CCc2cccc3c2[C@H]1Cc1ccc(O)c(O)c1-3 | inconclusive: 112 µM [inhibitor, partial curve, poor fit] and inconclusive: 25.1 µM [inhibitor, partial curve, poor fit]
CC(C/C=N/NC(=O)COc1cc(Cl)ccc1Cl)c1ccccc1 (stereo not drawn) | inactive
Cc1cccc(NC(=O)c2cc3c(n(-c4ccccc4)c2=O)CCCC3=O)n1 | inactive
CCS(=O)(=O)Nc1ccc(C2=NN(C(=O)c3ccccc3)C(c3cccs3)C2)cc1 (stereo not drawn) | inconclusive: 35.5 µM [inhibitor, full curve]
COc1ccc(CNC(=O)COC(=O)c2c(-c3c(F)cccc3Cl)noc2C)cc1OC | inconclusive: 28.2 µM [inhibitor, partial curve, poor fit]

Compound | Potency
COc1ccc(/C=C(\NC(=O)c2ccc(Cl)cc2)C(=O)NCC2CCCO2)cc1OC (stereo not drawn) | inconclusive: 0.631 µM [inhibitor, full curve, poor fit]
Cc1ccccc1N1CCN(C2CCCN(C(=O)CCN3CCCO3)C2)CC1 (stereo not drawn) | inconclusive: 79.4 µM [inhibitor, single point]
COc1ccc([C@@H]2CC=C(C(=O)O)[C@H](c3ccccc3F)N2S(=O)(=O)c2ccc(C)cc2)cc1OC | inconclusive: 39.8 µM [inhibitor, partial curve, poor fit]
COc1ccc(Sc2ccc(/C=C3\C(=O)NN(c4ccccc4)C3=O)o2)cc1 | inconclusive: 8.91 µM [inhibitor, full curve, poor fit]
C[N+](C)(CC#Cc1ccccc1)CC(=O)c1ccc(Cl)cc1 | inconclusive: 112 µM [inhibitor, partial curve, poor fit]
CC(C)CN(C(=O)CC1OC(=O)c2ccccc21)c1c(N)n(Cc2ccccc2)c(=O)[nH]c1=O (stereo not drawn) | inactive
O=C(CCl)Nc1cc(SCC(O)CO)cc([N+](=O)[O-])c1 (stereo not drawn) | inactive
Cc1nnc(NC(=O)c2cccc(S(=O)(=O)N3CCOCC3)c2)s1 | inconclusive: 0.631 µM [inhibitor, full curve, poor fit]
Cc1cc(S(=O)(=O)Nc2c(NC3CCCCC3)c3ccccc3oc2=O)ccc1F | inactive
COC(=O)c1ccc(/C=N/NC(=S)NCCN2CCOCC2)cc1 | inactive
CCCCn1c(=O)[nH]c(=O)c2c1nc(-c1ccc(OCCC)c(OCC)c1)n2C | inconclusive: 22.4 µM [inhibitor, full curve, poor fit]
CSc1ccccc1NC(=O)CN(Cc1ccc(Cl)cc1)S(C)(=O)=O | inconclusive: 35.5 µM [inhibitor, partial curve]
CC1C/C(=N\NC(=S)NC(C)C)CC(C)(C)C1 (stereo not drawn) | inactive
N=c1n(CC(=O)O)c2ccccc2n1Cc1ccccc1Cl | inconclusive: 8.91 µM [inhibitor, full curve, poor fit]
CCOC(=O)c1cc(=O)n2[nH]c(-c3ccc(C)cc3)cc2n1 | inconclusive: 0.708 µM [inhibitor, full curve]
Cc1cc(C)c(S(=O)(=O)n2ccc(-c3ccc(OCCN(C)c4ccccn4)cc3)n2)c(C)c1 | inactive
Cc1ccc(-n2c(-c3ccncc3)nnc2-c2ccco2)cc1 | inconclusive: 0.891 µM [inhibitor, full curve, poor fit]
COc1ccccc1CC(=O)N1CCN(S(=O)(=O)c2ccccc2)CC1 | inactive
COc1cc2c(cc1OC)-c1c(OC)c(OC)cc3c1C(C2)N(C)CC3 (stereo not drawn) | inconclusive: 50.1 µM [inhibitor, partial curve, poor fit]
CNC(=O)CC1C(=O)N(c2ccc(Cl)cc2)C(=S)N1CCc1ccc(OC)c(OC)c1 (stereo not drawn) | inactive
Cc1cc(C)n(S(=O)(=O)c2ccc3oc(=O)ccc3c2)n1 | inconclusive: 0.631 µM [inhibitor, full curve, poor fit]
